Hit rate of the full screen: of about 52,000 compounds, about 4,300 (8.3%) were called active. No stated cut-off is given here; in the data, active means survival mostly below about 52% (no sharp cut-off); inactive means mostly above about 56%. The list shows a part of the results.

The test system of the experiment is DeltatarO mutant. Briefly: growth inhibition of S. aureus wild type versus tarO mutant, primary screen, teichoic acid synthesis inhibitors, RN4220, OD600 (AID 463173). Particulars: OD600, 18 h, hits give low values, screened at 18.75 µg/mL (by protocol).
For `CC(C)c1ccc(NC(=O)CSc2ncc3c(n2)-c2ccccc2N(C)S3(=O)=O)cc1`, the survival is inactive: 92%.

Take `Cc1ccc(Cl)c2sc(N3CCN(C(=O)C4CC4)CC3)nc12`: the survival was inactive: 87%.

As for `CSc1ccc(CNCc2c(C(=O)O)c(C)n(Cc3ccc(F)cc3Cl)c2C)cc1`, the survival is inactive: 79%.

On to `CC1=NN(CCC#N)C(c2ccccc2)C1` (centres undefined), for which the survival is inactive: 107%.

For `Cc1cc(C)cc(OCC(=O)NCC(c2ccc(Cl)cc2)N2CCCCC2)c1` (centres undefined), the survival is inactive: 61%.

For `CC1CCc2c(sc3nnn(Cc4ccc(F)cc4)c(=O)c23)C1` (centres undefined), the survival was active: -1%.

Take `COc1ccc(Cc2c(Cl)nc(SC)nc2NN)cc1`: the survival was inactive: 84%.

For the compound `O=C(NCc1ccccc1)c1cc(-c2cccc(Cl)c2)on1`, the survival is inactive: 61%.

Turning to `COc1ccc(S(=O)(=O)N2CCN(c3ccc(F)cc3)CC2)cc1-c1noc(C)n1`, the survival was inactive: 51%.

Take `COC(=O)c1cc(NC(=O)CCc2c(C)nc3c4c(C)cc(C)nc4nn3c2C)cc(C(=O)OC)c1`: the survival is active: 56%.

For the compound `Cc1cc(S(=O)(=O)Nc2cccc(C(=O)O)c2)c(C)c(S(=O)(=O)c2ccccc2)c1`, the survival was inactive: 76%.

Turning to `Cc1nnc(SCCCN2C(=O)c3ccccc3C2=O)o1`, the survival was inactive: 73%.

With `S=c1[nH]nc(NNc2ccccc2)n1Nc1ccccc1`, the survival was inactive: 74%.

Consider `CN(C)C(=O)c1c(N)no[n+]1[O-]`, for which the survival was active: 56%.

With `CCOC(=O)c1sc2ccccc2c1S(=O)(=O)Nc1ccc(N(C)C)cc1`, the survival was inactive: 126%.

With `CCOC(=O)c1sc(N2C(=O)c3oc4cc(C)c(C)cc4c(=O)c3C2c2cccc(O)c2)nc1C` (centres undefined), the survival is inactive: 78%.

For `CCc1ccccc1NC(=O)Cn1nnc(C(=O)OC)c1C(=O)OC`, the survival was inactive: 93%.

As to `COc1ccc(N2CCOCC2)cc1`, the survival was inactive: 89%.

With `CCN(CC)S(=O)(=O)c1ccc2c(c1)N(CC(=O)Nc1c(C)cccc1C)C(=O)CO2`, the survival was inactive: 91%.

Take `COc1ccc(OC)c(N(CC(=O)NCc2ccccc2)S(=O)(=O)c2ccccc2)c1`: the survival is inactive: 71%.

For the compound `O=C1CC2CCC(CN1)N2CC(=O)N1c2ccccc2Sc2ccc(C(F)(F)F)cc21` (centres undefined), the survival was inactive: 102%.

As to `CCc1ccc(NCc2cc3cc4c(cc3n(CC(=O)Nc3ccc(Cl)cc3)c2=O)OCO4)cc1`, the survival is inactive: 135%.

Turning to `COC(=O)c1ccc(NC(=O)CC2C(=O)N(c3ccc(Cl)cc3)C(=O)N2Cc2cccs2)cc1` (centres undefined), the survival is inactive: 102%.

For the compound `COc1ccc(CCNC(=O)c2nn(-c3ccc(C)cc3)c(=O)c3c2c2ccccc2n3C)cc1OC`, the survival was inactive: 80%.

Consider `O=C(CC1N=C2c3ccccc3N=C(SCC(=O)Nc3cccc(C(F)(F)F)c3)N2C1=O)NCc1cccs1` (centres undefined), for which the survival is inactive: 69%.

Turning to `CCOC(=O)CCn1nc(-c2ccc(C)cc2)c2ccccc2c1=O`, the survival is inactive: 67%.

In the case of `Cc1ccc(C)c(Cn2c(=O)n(Cc3ccccc3)c(=O)c3c(C)c(C)sc32)c1`, the survival is inactive: 97%.

With `CCc1ccccc1NC(=O)Nc1nnc(N2CCCC2)s1`, the survival is inactive: 90%.

On to `CCc1ccc(CN(Cc2ccco2)C(=O)c2ccccc2Cl)cc1`, for which the survival is active: 46%.

On to `COc1ccccc1NC(=O)CCCOc1cc(=O)n(C)c2ccccc12`, for which the survival is inactive: 114%.

Regarding `CCc1ccccc1NC(=O)c1cc(S(=O)(=O)N(CC)c2ccccc2)ccc1F`, the survival was inactive: 101%.

Consider `CCOC(=O)Cn1cnc2sc(C)c(C)c2c1=O`, for which the survival was inactive: 95%.

For `CC1CCN(c2nc3c(S(=O)(=O)c4ccccc4)nnn3c3ccsc23)CC1`, the survival was inactive: 113%.

For `COc1ccc(-c2nc(C)c(CCNC(=O)C(=O)Nc3cccc(F)c3)s2)cc1OC`, the survival is inactive: 83%.

Regarding `Cc1ccc(S(=O)(=O)c2nnn3c2nc(NCc2ccc(F)cc2)c2sccc23)cc1`, the survival is inactive: 113%.

In the case of `CCCNC(=O)c1ccc2c(c1)N(Cc1cccc(C)c1)C(=O)c1ccccc1S2`, the survival is inactive: 101%.

Consider `COc1ccc(NC(=O)CCN2CCN(c3cccc(Cl)c3)CC2)cc1`, for which the survival is inactive: 67%.

For the compound `O=C(CSC1=NCCS1)N1CCN(c2ccc(Cl)cc2)CC1`, the survival was inactive: 69%.

In the case of `O=C(Cn1c(C(=O)N2CCN(C(=O)c3ccco3)CC2)cc2sccc21)c1ccccc1`, the survival is inactive: 85%.

Turning to `Cc1ccc(C(=O)COC(=O)c2cc(-c3ccccc3)nc3ccccc23)cc1C`, the survival is inactive: 125%.

For `COc1cc(NC(=O)Cn2c(=O)n(Cc3ccccc3OC)c(=O)c3cccnc32)cc(OC)c1`, the survival is inactive: 119%.

With `CCn1nc(C)c(Oc2ccccc2O)c1C`, the survival was inactive: 118%.

Turning to `Cc1ccc(C)c(N2CCN(S(=O)(=O)c3ccc4oc(=O)c5ncn(C)c5c4c3)CC2)c1`, the survival was inactive: 76%.

With `CCOC(=O)CSc1nnc(-c2ccccc2NC(=O)c2ccccc2)o1`, the survival was inactive: 125%.

For the compound `O=C(NCCc1ccccc1)c1ccc(CSc2nc3cccnc3n2Cc2ccc(F)cc2)cc1`, the survival is inactive: 92%.

With `CC(=O)c1ccc(NC(=O)C2CCC(CNS(=O)(=O)c3ccc(Br)s3)CC2)cc1` (centres undefined), the survival was inactive: 69%.

`O=C(NC(=O)c1cccc(F)c1)Nc1ccc(-c2cc(C(F)(F)F)nn2-c2ccccc2)cc1`: the survival is inactive: 157%.

As for `Cc1nc(-c2ccc(C)c(N3CCN(C(=O)Nc4ccccc4C(F)(F)F)CC3)c2)no1`, the survival is inactive: 89%.

With `COc1cccc(CNC(=O)c2c(C)nn(-c3cccc(C)c3)c2-n2cccc2)c1`, the survival is inactive: 81%.

`O=C(NCCCc1ccccc1)c1nn(-c2ccccc2F)nc1CO`: the survival was inactive: 92%.

Consider `COC(=O)c1sc(-c2ccccc2)cc1NC(=O)c1cccc(F)c1`, for which the survival was inactive: 94%.

For the compound `O=C(NCc1ccc(F)cc1)C1CCN(C(=O)c2ccc(-n3ccc4ccccc43)s2)CC1`, the survival is inactive: 83%.

For `Cc1ccc(CN2CCCn3nc(C(=O)NCCC(C)C)cc3C2=O)cc1`, the survival was inactive: 92%.

In the case of `CCC(C)(C)n1nnnc1C(C(C)C)N(Cc1cccnc1)Cc1ccco1` (centres undefined), the survival is inactive: 78%.

Regarding `Cc1ccc(C(=O)Nc2nnc(S(=O)(=O)N3CCOCC3)s2)cc1`, the survival is inactive: 68%.

Take `Cc1cc(Cl)nc2ccc(Cl)cc12`: the survival was inactive: 76%.

`COC(=O)c1ccc(NC(=O)C2(S(=O)(=O)c3ccc(C)cc3)CC2)cc1`: the survival is inactive: 134%.

On to `CCNC(=O)Cn1cc(C#N)c2ccccc21`, for which the survival is inactive: 88%.

Turning to `O=C1C2C3C=CC(C3)C2C(=O)N1CCN1CCCC1` (centres undefined), the survival was inactive: 109%.

The values are drawn from PubChem BioAssay AID463173 (ICCB-Longwood Screening Facility, Harvard Medical School, 2010).
